Variants at the floor of the assay are shown more often than the library holds them.
B1: TPR 5TU (parent)
chain: GGAUCUUCUCGAUCUAACAAAAAAGACAAAUCUGCCACAAAGCUUGAGAGCAUCUUCGGAUGCAGAGGCGGCAGCCUUCGGUGGCGCGAUAGCGCCAACGUUCUCAACUAUGACACGCAAAACGCGUGCUCCGUUGAAUGGAGUUUAUCAUG

Variants of: B1
Test: polymerase ribozyme fitness, log enrichment relative to wild type (log ratio); higher = more active; in vitro selection for triplet polymerase activity
In short: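 Input and output libraries were sequenced on Illumina after a single in vitro selection round, run in triplicate on PCR-built, transcribed mutant libraries of each subunit of a heterodimeric triplet polymerase ribozyme. Selection annealed libraries to a biotinylated primer, the partner subunit and triplets, incubated them frozen at −7 °C, then gel-excised extended constructs for streptavidin-bead capture and RT-PCR. Genotypes with ≥10 input reads and ≥1 read per output were kept. Fitness is the logarithm, taken in base 2, of genotype enrichment divided by wild-type enrichment, using inverse-variance-weighted replicate averages.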

| Variant | polymerase ribozyme fitness (log ratio) |
| --- | --- |
| A37C A40G G70C G88C | ≤ -4.2 |
| C35U A60G G136U | -3.08 |
| C35U C54U G71U C87U U151C | ≤ -4.2 |
| A37C G50C A73U | ≤ -4.2 |
| C36A A39C G50A C57U C87U A89C C103A A106U C108U U148G | ≤ -4.2 |
| C36A U56A U61A U148G | ≤ -4.2 |
| C35U C69G U77A U111C G143U | ≤ -4.2 |
| C36A C75U C99U | ≤ -4.2 |
| C35U G42C U82G A110G C129U | ≤ -4.2 |
| C36U C79A C87G U127G | ≤ -4.2 |
| C36A C93G C125A | ≤ -4.2 |
| A37C A47G G48A G58A G84U A119G | ≤ -4.2 |
| C36G A119C | ≤ -4.2 |
| C36A U56A C76G C87A C123A | ≤ -4.2 |
| C35U G50A C79G G88C | ≤ -4.2 |
| C36G U53A A73C G88U C95G C96A | ≤ -4.2 |
| C36U C54U C93G U104G | ≤ -4.2 |
| C35U A41G C63U G80U C87A C103A G124U U148G | ≤ -4.2 |
| C35U U56A C95A C105U G126C | -1.08 |
| C35U C43U C85A A97C C108G C149G | ≤ -4.2 |
| C36A C75U U77A C118G G136A | ≤ -4.2 |

| Variant | polymerase ribozyme fitness (log ratio) |
| --- | --- |
| C35U G70A C76A C105A C129A G136U | ≤ -4.2 |
| C36U A49U U82A A107C G133C | ≤ -4.2 |
| C35U C57U C63U A73C C93U C99U | ≤ -4.2 |
| C36A G42U G92A A120G A121C A137G A142U | ≤ -4.2 |
| A37C G48A U55A C85U C93G C108A | ≤ -4.2 |
| C36A G68C G88A U101G | ≤ -4.2 |
| C35U U56A G143C | -2.48 |
| C36G U78A C85A | ≤ -4.2 |
| C35U C116A C131G U139A U146G | ≤ -4.2 |
| C35U G92A C96G A98C | -3.23 |
| C36A U56G G67C C93G G124A | ≤ -4.2 |
| C36A C51U G68A C85G A97U | ≤ -4.2 |
| C35G G71A C96G U139G | -3.91 |
| C35U C87A | ≤ -4.2 |
| C35U C54U U90G A91U C99U U144G A150U | ≤ -4.2 |
| C35U U44G G65C C85U A107G C114G A115U U135A G140U | ≤ -4.2 |
| C35U A52C C54G C76G C85U G140C | ≤ -4.2 |
| C35U A91C | ≤ -4.2 |
| A37C C43A A107U | ≤ -4.2 |
| C36U G62A A91C C96G A113U | ≤ -4.2 |
| C36A G86A A89C C96U U148G A150C | ≤ -4.2 |

| Variant | polymerase ribozyme fitness (log ratio) |
| --- | --- |
| C36A A37C C38A C95G C99U U146A | ≤ -4.2 |
| C35U A39U U55A C75G U82G C85U C125A | ≤ -4.2 |
| C35U U56A G83U G92U C125U U151G | ≤ -4.2 |
| C36U A52C U55G G86A | ≤ -4.2 |
| C36U C57A C79U | ≤ -4.2 |
| C35U C93A A110G C114U U134G G141C A147U | ≤ -4.2 |
| C36U U56C C79A A91C C108A | ≤ -4.2 |
| C35G G94C C125G C131U A142G | ≤ -4.2 |
| C36U C51G A107U G128A U139G | ≤ -4.2 |
| C35U G58U G74A G80U G83A C116G | ≤ -4.2 |
| C36A A66G G88C U101G C116G | ≤ -4.2 |
| A37C C54U C76U C93G U102C U139G | ≤ -4.2 |
| C35U G46C G84A C96U C108G G124A A142U | ≤ -4.2 |
| C35G G74C G81C C87G G143C G152U | ≤ -4.2 |
| C36U A64G G94A A110G | -4.2 |
| C35U A41U G81A C85A G92A U109C A120U | ≤ -4.2 |
| C36U U53G G81C C93A | ≤ -4.2 |
| A37C G83A | -0.102 |
| C35U A37C U55A C95U | -1.32 |
| C36A C87U C105A C125A | ≤ -4.2 |
| C36A G59A A137C | ≤ -4.2 |

| Variant | polymerase ribozyme fitness (log ratio) |
| --- | --- |
| C35G U45G C51U A66C U139C | ≤ -4.2 |
| A37C G83C C103A C131G | ≤ -4.2 |
| C35U A47G C87A A91U C93G C116U A119U | ≤ -4.2 |
| C36G A49U U55A A121U A142U U148A | ≤ -4.2 |
| C36A C72U U148C | ≤ -4.2 |
| A37C G48A A49C U78G G86A C87G C99U A142C U146G | ≤ -4.2 |
| C35U A142G | -1.79 |
| C35U A49C G59A C95U U104A G143C | ≤ -4.2 |
| C35U | -0.0953 |
| A37C G92U | -0.276 |
| A37C C87G A97U U102G C108U C118U U144C | ≤ -4.2 |
| C35G G62C G80A U90C C95A A106G | ≤ -4.2 |
| C36A G59C A91C C114U U145C | ≤ -4.2 |
| C36U U55G C118G | -1.72 |
| C36G G94U A98G G141A U146A | ≤ -4.2 |
| C36G G50C C149A | ≤ -4.2 |
| A37C C43A C69A G92A C105A C116A G141C G143A | ≤ -4.2 |
| C35U C57G G68U A119G G140C | ≤ -4.2 |
| C35U U55A C57G C69U C95G G140C | ≤ -4.2 |
| C36A A40U G59C G67A G71C A98G | ≤ -4.2 |
| C35U C85U A97U U111C U146C | ≤ -4.2 |

From the RNAGym collection of RNA variant scans (doi:10.1073/pnas.2313332121)
